The whole screen tested about 310,000 compounds, of which about 2,200 (0.71%) showed an effect of 50% or more. The effect is printed as a negative number. The list shows a part of the results.

human ether-à-go-go-related gene (hERG) potassium channel, sequence (Q12809 whole entry, looked up): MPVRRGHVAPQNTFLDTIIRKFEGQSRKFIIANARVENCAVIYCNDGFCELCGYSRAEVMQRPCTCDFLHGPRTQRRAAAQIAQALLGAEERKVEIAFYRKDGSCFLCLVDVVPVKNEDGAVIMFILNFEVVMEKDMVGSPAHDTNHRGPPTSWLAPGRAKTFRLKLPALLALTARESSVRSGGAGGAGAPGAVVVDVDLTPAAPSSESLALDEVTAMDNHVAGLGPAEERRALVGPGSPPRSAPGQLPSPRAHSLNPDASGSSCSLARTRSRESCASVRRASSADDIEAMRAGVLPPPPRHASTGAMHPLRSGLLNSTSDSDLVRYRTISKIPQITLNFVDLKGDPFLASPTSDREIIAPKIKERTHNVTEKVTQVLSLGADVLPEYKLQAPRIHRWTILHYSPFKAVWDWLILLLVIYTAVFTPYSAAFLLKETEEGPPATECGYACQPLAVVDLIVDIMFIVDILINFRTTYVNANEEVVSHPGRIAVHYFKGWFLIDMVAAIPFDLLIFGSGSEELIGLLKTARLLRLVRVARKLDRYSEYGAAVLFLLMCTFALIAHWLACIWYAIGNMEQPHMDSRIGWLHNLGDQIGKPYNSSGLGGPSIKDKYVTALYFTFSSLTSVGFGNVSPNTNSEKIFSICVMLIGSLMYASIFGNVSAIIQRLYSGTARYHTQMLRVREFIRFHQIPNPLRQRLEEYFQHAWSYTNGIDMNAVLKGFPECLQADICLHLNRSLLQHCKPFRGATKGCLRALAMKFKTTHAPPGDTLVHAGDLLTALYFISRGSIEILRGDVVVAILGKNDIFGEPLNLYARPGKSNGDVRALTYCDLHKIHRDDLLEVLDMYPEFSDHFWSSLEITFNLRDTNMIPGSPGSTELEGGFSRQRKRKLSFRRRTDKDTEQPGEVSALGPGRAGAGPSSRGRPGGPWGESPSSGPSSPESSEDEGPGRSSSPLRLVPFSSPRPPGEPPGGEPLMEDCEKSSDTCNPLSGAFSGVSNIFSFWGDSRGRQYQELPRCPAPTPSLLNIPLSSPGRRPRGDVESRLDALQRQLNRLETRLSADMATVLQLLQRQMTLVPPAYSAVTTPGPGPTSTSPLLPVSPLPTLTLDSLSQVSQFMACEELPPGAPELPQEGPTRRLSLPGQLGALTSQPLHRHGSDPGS

The assay has as its target human ether-à-go-go-related gene (hERG) potassium channel (human, UniProt Q12809). The experiment in a line: primary screen, population patch clamp on CHO cells stably expressing hERG.
For `CC(C)C(NS(=O)(=O)c1cccs1)C(=O)NCc1ccc2c(c1)OCO2` (centres unmarked), the “hERG current change (%, negative = inhibition) at 1uM” value is reported as -2.5%.
Next, `FC(F)Oc1ccc(NC(=S)N2CCN(Cc3ccccc3)CC2)cc1`: 2.94%.
As to `COc1cccc(CN2C(=O)N(C(C)C)C(N(O)C(=O)NC(C)C)C2(C)C)c1OC` (centres unmarked), the “hERG current change (%, negative = inhibition) at 1uM” value stood at 8.36%.
Next, `COc1cc(/C=C2\C(C)=C(C#N)c3nc(N)c(C#N)c(C)c32)ccc1OCC(=O)O`: 4.98%; `Cc1ccc(CNC(=O)CN(c2ccc(C(C)C)cc2)S(=O)(=O)c2c(C)noc2C)cc1`: 13.3%; `C#CCN1N=C(c2ccc(C)cc2)CSC1=O`: 14.5%.
Next, `O=C(Nc1ccccc1N1CCCCC1)c1ccc2nccnc2c1`: 8.74%; `O=C([O-])c1cc([N+](=O)[O-])ccc1Nc1ccccc1.[Na+]`: 4.39%; `CCC(=O)c1ccc(OCC(=O)OCC(=O)N2c3ccccc3CC2C)cc1` (centres unmarked): -1.42%.
For `C=CCNC(=O)C1CC2Cn3c(nc4cc(Cl)c(Cl)cc43)C2N1C` (centres unmarked), the “hERG current change (%, negative = inhibition) at 1uM” value was -0.672%.
Next, `Cc1ccc(N2CC(=O)Nc3c(sc4nc(C)cc(C)c34)C2=O)cc1`: 5.12%; `Cc1nc(C(=O)N(C)C)nn1-c1ccc(Cl)cc1Cl`: 7.99%; `COC(=O)C1C(=O)C2=C(CC1C)NC(=O)CC2c1ccc(F)cc1` (centres unmarked): 21.6%.
Next, `N#CCCN(C(=O)COC(=O)CNC(=O)C12CC3CC(CC(C3)C1)C2)c1ccccc1`: -6.31%.
Next, `O=C(Nc1cc(Cl)ccc1-n1cncn1)c1ccc([N+](=O)[O-])o1`: 5.03%; `COc1cc(C2C(C(C)=O)=C(O)C(=O)N2Cc2ccccc2)ccc1O` (centres unmarked): 13.6%; `CC(Nc1cc(N2CCNCC2)ccc1[N+](=O)[O-])c1ccccc1` (centres unmarked): 11.1%.
Regarding `COc1ccc(CN2C(=O)c3cccc4cccc2c34)cc1F`, the “hERG current change (%, negative = inhibition) at 1uM” value is reported as 16%.
As for `CCCC(=O)Nc1nnc(SCC)s1`, the “hERG current change (%, negative = inhibition) at 1uM” value came out at 19%.
Next, `Cc1cc(C(=O)Nc2ccc3c(c2)OCCO3)c2ccccc2n1`: 12%.
Turning to `S=C(NCCc1ccccc1)Nc1ccc(Cl)cc1`, the “hERG current change (%, negative = inhibition) at 1uM” value was determined as 8.15%.
Consider `CN(C1CCCCC1)S(=O)(=O)c1cccc(C(=O)OCC(=O)NC2CCCc3ccccc32)c1` (centres unmarked), for which the “hERG current change (%, negative = inhibition) at 1uM” value was found to be 3.79%.
Next, `COc1ccc(N2CC(C(=O)NCCc3ccc(Cl)cc3)CC2=O)c(OC)c1` (centres unmarked): -12.5%.
Next, `CC(OC(=O)/C(C#N)=C/c1ccc(N(C)C)cc1)C(=O)N(C)Cc1ccccc1` (centres unmarked): 5.88%; `COc1cc2nc(-c3ccc(Br)o3)oc(=O)c2cc1OC`: 11.7%; `COc1ccc([N+](=O)[O-])cc1NC(=O)C1CCCCC1C(=O)O` (centres unmarked): 6.15%.
Turning to `COc1ccc(C(c2sc3nc(C)nn3c2O)N2CCC(C(N)=O)CC2)cc1OC` (centres unmarked), the “hERG current change (%, negative = inhibition) at 1uM” value is -7.46%.
Next, `O=C(CN1C(=O)NC2(CCCc3ccccc32)C1=O)Nc1cc(F)ccc1F` (centres unmarked): 7.28%; `C=CCOc1ccc(/C=C2\SC(=S)N(CCC(=O)O)C2=O)cc1`: 15.8%.
Consider `CCCCCNc1c(C(=O)OCC)c(=O)[nH]c2ccccc12`, for which the “hERG current change (%, negative = inhibition) at 1uM” value was 4%.
Next, `N#Cc1nc(Cl)c(Cl)c(NN)c1Cl`: 18.2%; `Cc1ccc(-c2csc3ncnc(SCC(=O)c4ccc5c(c4)OCCO5)c23)cc1`: 0.145%.
Next, `CCc1cccc(NC(=O)Cc2ccc(OC)c(OC)c2)c1`: 3.92%; `CCOC(=O)C1(Cc2ccccc2)CCCN(Cc2ccncc2)C1` (centres unmarked): 1.89%; `CC(=O)N1CN(C(C)=O)CN(C(C)=O)C1`: 6.19%.
For the compound `Cc1ccc(NC(=S)N=Nc2c(O)[nH]c3ccccc23)cc1`, the “hERG current change (%, negative = inhibition) at 1uM” value worked out at 12.5%.
As to `S=C(NCc1ccccc1)Nc1ccc2cn[nH]c2c1`, the “hERG current change (%, negative = inhibition) at 1uM” value came out at 1.27%.
In the case of `CCOC(=O)c1ccc(N2CSC3=C(C#N)C(c4ccc(OC)cc4OC)CC(=O)N3C2)cc1` (centres unmarked), the “hERG current change (%, negative = inhibition) at 1uM” value was 11.9%.
Next, `COc1cc(C(=O)NC2CCCc3c2cnn3-c2ccccc2F)cc(OC)c1OC` (centres unmarked): 11.1%.
Next, `CCC1CCCCN1C(=O)CSc1nnc(-c2ccco2)o1` (centres unmarked): 11.2%.
On to `Cc1nn2c3c(cnc2c1-c1ccccc1)C(=O)CCC3`, for which the “hERG current change (%, negative = inhibition) at 1uM” value is 10.7%.
Next, `CC1CC(=O)Nc2ccccc2N1C(=O)Nc1ccc(F)cc1F` (centres unmarked): 14.7%.
Next, `COc1ccc(CCNC(=O)C2(C)CCC(=O)N2Cc2ccc(F)cc2Cl)cc1OC` (centres unmarked): 16.2%.
Next, `Cc1cc(-c2nn(-c3ccccc3F)cc2CN2CCN(c3ccncc3)CC2)c(C)s1`: -69.3%; `CCOC(=O)Nc1ccc2c(c1)N(C(=O)C(C)N1CCCC1)c1ccccc1CC2.Cl` (centres unmarked): -28.3%; `COc1ccc(/C=N/n2c(=O)[nH]c3c([nH]c4ccc(Br)cc43)c2=O)cc1CN1CCOCC1`: 10.5%.
For `Cc1ccc2cc(CN(C(=O)c3ccco3)c3cccc(C)c3C)c(=O)[nH]c2c1`, the “hERG current change (%, negative = inhibition) at 1uM” value was determined as 14.9%.
As to `O=C(Nc1nc2ccccc2s1)c1ccccc1[N+](=O)[O-]`, the “hERG current change (%, negative = inhibition) at 1uM” value was 11.1%.
Take `c1ccc(Cc2nnc3sc(Nc4ccccc4)nn23)cc1`: the “hERG current change (%, negative = inhibition) at 1uM” value was 4.65%.
In the case of `CCNC(=S)N(Cc1cc2cc(C)c(C)cc2[nH]c1=O)C1CCCC1`, the “hERG current change (%, negative = inhibition) at 1uM” value was 17.4%.
Regarding `O=C(/C=C/c1ccc(Cl)cc1)NC(=S)Nc1ccc(N2CCOCC2)c(Cl)c1`, the “hERG current change (%, negative = inhibition) at 1uM” value is reported as -11.9%.
Consider `CN(C(=O)c1ccc(OC2CCN(C(=O)c3cccnc3)CC2)cc1)C1CCCCC1`, for which the “hERG current change (%, negative = inhibition) at 1uM” value was found to be 8.5%.
Next, `c1ccc(C2Oc3ccccc3C3CC(c4cccs4)=NN32)cc1` (centres unmarked): 12.6%; `O=C(O)c1cccc(COc2ccc(CO)cc2Cl)c1`: 4.22%; `O=C(O)CC(Cc1ccc(Cl)cc1)C(=O)Nc1cc(Cl)ccc1Cl` (centres unmarked): 18.4%.
Next, `CSc1ccccc1C(=O)N1CCC2(CC1)CC(=O)c1ccccc1O2`: -27.2%.

Values taken from PMC4336329 (PLoS ONE, 2015).
